Measured values from the RNAGym collection of RNA variant scans (doi:10.7554/elife.90254).
The source gives no read counts; variants with many changes may rest on few reads.

B1: LINE1-full (parent)
chain: UACGUAGGUGGUUUUCCCCUGAUAGUGCUAAGGGGGCCUGGAAGUUUGGACUGGGCAGAGCUCAACACAGCGUGGCAAAGUGGCUGUGGCUAGACUGCCUCUCUGGAUUCCUCGUCACUCAGCAGGGCAUCUCUGAGAGAAAUGCC

Variants of: B1
Assay: self-cleavage, relative activity (ratio to wild type); higher = more cleavage; in vitro, sequencing; the parent is a self-cleaving ribozyme

| Variant | self-cleavage |
| --- | --- |
| A24G A43U U85C | 0.46 |
| A24G A121C A141G | 0.41 |
| U23C A42U U81C U87C U132C | 0 |
| U23A U73C C118U | 1.01 |
| A22U U91A U96C | 0 |
| U23C A30G A136U | 0 |
| U23C A77U U119A | 1.77 |
| U23A A50G A92U | 0.57 |
| U23C U26C A141G | 1.29 |
| A24G C68U U102G A141G | 0.24 |
| U23C A59G U62C U115G | 0 |
| U23A A64G U100C | 0.35 |
| U23G G34A A92U | 1.07 |
| A24G A43G A117C | 0.85 |
| U23C A24G G25A U52A A57G | 0.68 |
| A24G A31G U62C A129U | 0.31 |
| U23C A64G U81A A121G | 0.28 |
| U23C U52A U62C C71U A121G | 0.02 |
| U23C C71U A136G | 1.27 |
| A22U U62A U73C U100C A138U | 0.11 |
| A22U U132C U143C | 1.24 |
| A24G A42G A43G | 0.54 |
| A24G C37U A59G U115C | 0.2 |
| A22U G44A U119A | 1.68 |

| Variant | self-cleavage |
| --- | --- |
| U23A U73C A78U A94G | 0.38 |
| U23A U46A U112C | 1 |
| U23C A69U U109A | 0.05 |
| A24G A64G U87G G125U | 0.18 |
| A22U U52A A57U A65G | 0.06 |
| A24G C28A A79G G125U | 0.9 |
| U23A A92G G126U | 0.14 |
| A22U U46C G55A A94G A138G | 0.12 |
| A24G A31G A42G G97A A138U | 0.47 |
| A22U U62A U81C | 0.02 |
| U23A U62C A67G U104A | 0.27 |
| U23C U62A U96A U108C A124G | 0.15 |
| A24C A67G A140G | 0 |
| A24G A43G C90U | 0.14 |
| U23A C84A A140G | 0.07 |
| U23C A42C A57U A67G A141G | 0.74 |
| A24G A42G U52C A59U U102C | 1.53 |
| U23C A30G A69U C123U | 0.04 |
| U23A G35C C131G A136G | 0.76 |
| U23G C28A A59G A124G | 0 |
| A22U U39C A65G A142G | 0.09 |
| A24G A42G C71U U108C | 1.96 |
| A22U U46A U96A U100C U102C | 0.11 |
| U23C U85C U102A | 0.56 |

| Variant | self-cleavage |
| --- | --- |
| U23A A57G C76U A121G | 1.62 |
| U23A A124G G125U | 1.53 |
| A22U U115C A129C | 1.12 |
| U23C G54A A57G A77G | 0.1 |
| A24G C38U A77G U96C | 0.11 |
| A24C A67U U91C A129G | 0 |
| U23A U102C A138U | 1.26 |
| A24G C123U A140G | 1.49 |
| U23A U73C U85C G93U U115A A136G | 0.02 |
| U23C G54A U87A | 0.05 |
| A22U U23C U46C | 1.13 |
| U23A U39C A107U G126A | 0.67 |
| A24G C56U A57G A124G | 0.02 |
| U23C U52C U85G | 0 |
| A24G A50G A77G | 1.67 |
| U23C U85A U104C | 0.1 |
| A22U G53A U104C | 1.95 |
| U23C A31U A69U U108A | 0.1 |
| U23C A43G A94G | 1.62 |
| U23C U47G G126U | 1.32 |
| U23C G34A U39A | 1.07 |
| U23G U52A A67C A124U | 0 |
| U23C A31G C98U U115C | 1.49 |
| A24G A50G G126A U143C | 0.84 |

| Variant | self-cleavage |
| --- | --- |
| A24G A69G U85G | 0.33 |
| U23C A43G A67C U119C | 0 |
| U23C U26C U47C | 2.36 |
| A24G A57U U112C G126U | 0.22 |
| A24C A92U U102C U134G A141G | 1.15 |
| A22U U132C A138G | 1.31 |
| U23C C28G U52A A94G | 0.57 |
| U23C G34U A79G U115A U130C | 1.24 |
| U23C G34A U52A | 0.81 |
| A24G A57G U96A A124G A138G | 1.31 |
| A24G C37G U130C U143C | 1.31 |
| A22U U45G U100C | 0.73 |
| U23G A57U A67G G86A A140G | 0.1 |
| A24G A77U U81A C123A | 1.15 |
| U23C A24G U134A | 1.11 |
| U23C U45C A136G | 0 |
| U23C G83A U102C | 0.33 |
| U23C A117U A129G A142G | 2.16 |
| U23G A69U A136G | 0.07 |
| U23A A140U A141G | 1.98 |
| U23A A50U U81A U100A | 1.23 |
| U23C U102C U119C G126A | 2.53 |
| A22U U26C U91C | 1.95 |
| A24G C51U A136G | 0.93 |

| Variant | self-cleavage |
| --- | --- |
| U23C A50G U132A | 1.06 |
| U23A A69U U104C A138G | 0 |
| A24G A77U C98A A107G U134A | 0.84 |
| A22U U45C U119C | 1.62 |
| U23C U102A A141G | 1.19 |
| A22U U29A A67U | 0.28 |
| U23C U115C A140G A141G | 2.38 |
| A24G A43G A121G | 1.23 |
| A24G A57U U112C U130C | 0.28 |
| U23C U132A U143C | 1.41 |
| U23C A50G U52A A59G U143C | 0 |
| A24G G34A U46C U87C U119A A140U | 0.35 |
| U23C C71A A77U A79G U87C C110U A136U | 0.03 |
| A24G C37U A77G U108C A136G | 1.99 |
| A24G A69G C128U A142G | 0 |
| A24G C71U A121G G139U | 0.61 |
| U23C U26C G75A | 1.11 |
| U23A A24G U52A A136G | 1.58 |
| A24C U91C A117U U132A | 0.8 |
| A24G A42G A50C A57G A117U C128U A141G | 0 |
| A24G A42G U115C | 1.31 |
| U23C A78U U81C A117G U134C | 0 |
| U23G G34A U46G U102C | 1.33 |
| U23C A59U U87A A107G | 0.11 |

| Variant | self-cleavage |
| --- | --- |
| A22U U39C C120A | 0.79 |
| U23C U45C A129G | 0 |
| A24G A117U U143C | 1.36 |
| A24G A57G A69C | 0 |
| U23C A78U A79G U100C U132C A142G | 0 |
| A22U U102C U104G C123U | 1 |
| A22U U39C U46A A59G | 0.14 |
| U23C U26A A79G | 1.39 |
| U23C A67G G127U | 0.88 |
| U23C A67G A78G | 0 |
| A22U U52A U132C | 0.78 |
| A24G A50U U112C | 1.15 |
| U23A U47G U96A U130C | 0.08 |
| U23C G54A A59U | 0.63 |
| A22U U26C U119C | 1.77 |
| U23C G35U U81C U134C A142G | 2.3 |
| U23C U112C U119A | 1.02 |
| U23C U45C U62C | 0 |
| U23A A78G U85A | 0.08 |
| A22U U39C U119C U130C | 1.18 |
| U23A A78G C95U | 0.2 |
| A24C A129G U130C | 2.51 |
| A24G A117G G122A | 1.25 |
| U23C U119C A129G | 0.71 |

| Variant | self-cleavage |
| --- | --- |
| U23C U46C A129G | 1.02 |
| U23C U85A A121G | 0.02 |
| U23C U73C A124C | 1.84 |
| A22U U91A A129G A141G G144A | 0.62 |
| A24G A50G U62C U102C A129U | 0 |
| U23C A124U A138G | 0.79 |
| A24C U47A U85G G88A U96A U102C U132C | 0.1 |
| U23C G53U U87A U96C | 0.04 |
| U23A U45A U96A | 0.07 |
| U23C A79G C113A | 1.79 |
| A24G A65U U100C U134G A140G | 0.74 |
| A24G A42G U112A U132C | 1.71 |
| U23A U29C U134A | 1.3 |
| U23C U47A A136G | 1.1 |
| A22U G86A U91C U100C | 0.05 |
| U23C U134C A138G | 2.76 |
| U23C C120U A124U | 2.13 |
| U23C U108C U109C G137U | 0.8 |
| A22U U73C G125U A141G | 0.66 |
| U23C C113U A129U A138U | 1.33 |
| A24G A59U G105A A138G | 1.04 |
| U23A A42G U115C U143C | 1.67 |
| A24G A31U U132G | 1.71 |
